# Data from PubChem BioAssay (NCATS).
# The shares of active, inactive and inconclusive entries below differ from those in the screen. A potency beside an inconclusive call is a rough fit, not a confirmed value. Active and inactive are the calls of the source. Calls come from the whole dose curve; as a rule, active = well fitted curve in the direction sought with a large enough effect; inconclusive = small, poorly fitted or top-dose-only effect, or another doubt; inactive = no such curve, though single readings can be large; an effect the other way counts as inactive or inconclusive.
# Experiments:
# [1] = target: Rap guanine nucleotide exchange factor 3 (Homo sapiens) (UniProt O95398); experiment: Confirmatory qHTS for antagonist of cAMP-regulated guanine nucleotide exchange factor 3 (EPAC1) (AID 1645880); settings: EPAC1 Rap1B-BODIPY-GDP exchange, fluorescence; activity, negative = inhibition: at 115 µM (top of the series); note: nearly all actives have a fitted effect of over 55% in size;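 for activity, negative = inhibition: plate controls were DMSO only for no effect and full effect of the ATA control for full effect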
# Outline: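 Released BODIPY-GDP fluoresces less than Rap1-bound BODIPY-GDP; the signal is followed at 480/540 nm at 5-min intervals over 30 min, after 5 min at room temperature. Reactions contain 100 nM EPAC1, 250 nM RAP1B-BODIPY-GDP and 50 uM GDP; results are normalized to ATA and DMSO.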
# [2] = target: Rap guanine nucleotide exchange factor 4 (Homo sapiens) (UniProt Q8WZA2); experiment: Confirmatory qHTS for antagonist of cAMP-regulated guanine nucleotide exchange factor 4 (EPAC2) (AID 1645885); settings: EPAC2 Rap1B-BODIPY-GDP exchange fluorescence, biochemical; activity change, negative = inhibition: at 12.7 µM (top of the series) unless noted; series mostly up to 114 µM; note: nearly all actives have a fitted effect of over 25% in size; for activity change, negative = inhibition: % is set by controls: 0 for no effect and ±100 for the full control effect
# [3] = target: Rap guanine nucleotide exchange factor 3 (Homo sapiens) (UniProt O95398); experiment: Counterscreen qHTS for agonist of cAMP-regulated guanine nucleotide exchange factor 3 (EPAC1) (AID 1645889); settings: EPAC1 Rap1B-BODIPY-GDP exchange, fluorescence; activation: at 154 µM (top of the series) unless noted; note: nearly all actives have a fitted effect of over 40% in size; for activation: % of control where 0% means no effect
# Outline: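 Rap1B–BODIPY-GDP (250 nM) with 50 uM GDP; compounds pin-transferred to 9.74 nM–152 uM final (activator) or from 7.32 nM upwards (inhibitor). Fluorescence Ex/Em 480/540 nm read at 5 and 30 min, then after adding cAMP or buffer, at room temperature.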
# Potency is the fitted concentration of half-maximal effect; tags give direction and shape of the fitted curve.
# Chain of UniProt Q8WZA2 (Q8WZA2 whole entry, looked up): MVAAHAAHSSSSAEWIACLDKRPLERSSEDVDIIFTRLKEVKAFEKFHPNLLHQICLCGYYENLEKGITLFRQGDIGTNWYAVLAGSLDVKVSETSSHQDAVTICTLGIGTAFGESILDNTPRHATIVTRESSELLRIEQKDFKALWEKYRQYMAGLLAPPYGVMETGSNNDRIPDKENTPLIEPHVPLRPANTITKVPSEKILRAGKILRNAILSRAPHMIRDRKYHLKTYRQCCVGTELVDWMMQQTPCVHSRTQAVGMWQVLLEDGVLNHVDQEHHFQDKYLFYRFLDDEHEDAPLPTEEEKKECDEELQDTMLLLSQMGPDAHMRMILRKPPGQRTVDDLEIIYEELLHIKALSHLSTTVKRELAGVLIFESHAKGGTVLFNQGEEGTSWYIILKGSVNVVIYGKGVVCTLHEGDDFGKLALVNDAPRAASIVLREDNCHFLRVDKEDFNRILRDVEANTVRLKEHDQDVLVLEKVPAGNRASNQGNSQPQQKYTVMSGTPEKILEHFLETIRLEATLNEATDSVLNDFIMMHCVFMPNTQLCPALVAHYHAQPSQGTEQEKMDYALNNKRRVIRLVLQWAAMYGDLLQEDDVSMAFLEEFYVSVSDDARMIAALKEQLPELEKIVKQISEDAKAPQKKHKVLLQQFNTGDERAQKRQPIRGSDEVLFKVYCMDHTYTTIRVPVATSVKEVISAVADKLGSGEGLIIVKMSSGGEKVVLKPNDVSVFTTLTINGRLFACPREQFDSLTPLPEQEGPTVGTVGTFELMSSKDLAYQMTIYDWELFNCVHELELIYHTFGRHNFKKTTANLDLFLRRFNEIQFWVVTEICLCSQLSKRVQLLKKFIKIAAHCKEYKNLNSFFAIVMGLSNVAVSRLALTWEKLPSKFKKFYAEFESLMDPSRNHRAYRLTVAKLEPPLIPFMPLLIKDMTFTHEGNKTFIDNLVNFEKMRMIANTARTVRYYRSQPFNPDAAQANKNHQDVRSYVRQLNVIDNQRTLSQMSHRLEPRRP
# Chain of UniProt O95398 (O95398 whole entry, looked up): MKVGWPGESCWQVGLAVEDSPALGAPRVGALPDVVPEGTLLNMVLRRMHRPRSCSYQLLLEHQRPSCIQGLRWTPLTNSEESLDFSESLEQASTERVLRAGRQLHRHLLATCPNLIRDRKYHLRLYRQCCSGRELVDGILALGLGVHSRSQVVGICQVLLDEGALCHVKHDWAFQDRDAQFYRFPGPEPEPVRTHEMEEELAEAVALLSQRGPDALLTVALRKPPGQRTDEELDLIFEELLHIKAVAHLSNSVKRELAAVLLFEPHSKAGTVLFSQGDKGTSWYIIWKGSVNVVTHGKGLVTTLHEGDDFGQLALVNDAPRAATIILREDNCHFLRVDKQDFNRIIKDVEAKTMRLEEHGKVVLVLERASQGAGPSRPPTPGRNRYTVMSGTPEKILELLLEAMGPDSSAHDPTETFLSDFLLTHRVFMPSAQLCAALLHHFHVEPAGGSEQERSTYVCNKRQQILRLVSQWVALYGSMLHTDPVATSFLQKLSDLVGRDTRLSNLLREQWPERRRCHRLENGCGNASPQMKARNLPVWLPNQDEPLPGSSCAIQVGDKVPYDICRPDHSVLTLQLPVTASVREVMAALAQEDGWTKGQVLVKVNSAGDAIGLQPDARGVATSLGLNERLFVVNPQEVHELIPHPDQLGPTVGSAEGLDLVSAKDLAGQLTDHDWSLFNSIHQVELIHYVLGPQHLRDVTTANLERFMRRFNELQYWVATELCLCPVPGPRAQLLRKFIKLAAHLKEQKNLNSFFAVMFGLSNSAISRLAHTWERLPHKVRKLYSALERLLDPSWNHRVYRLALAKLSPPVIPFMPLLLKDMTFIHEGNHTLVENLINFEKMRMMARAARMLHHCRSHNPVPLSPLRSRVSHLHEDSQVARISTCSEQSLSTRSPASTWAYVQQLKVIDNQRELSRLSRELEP
SMILES,Potency [1],Potency [2],Potency [3],activation [3]
C=C1SC(Nc2c(C)cccc2C)=NC12CCCCC2,"inconclusive: 0.0107 µM [inhibitor, full curve, poor fit]","inconclusive: 30.1 µM [inhibitor, partial curve, poor fit]",inactive,
COc1ccc(C(=O)NC2(C(F)(F)F)NC(=O)N(CCCc3ccccc3)C2=O)c(OC)c1OC (centres undefined),"inconclusive: 8.91 µM [inhibitor, full curve]",inactive,"inconclusive: 4.47 µM [activator, partial curve]",
CN(CCC#N)C(=O)COC(=O)c1c2c(nc3ccccc13)/C(=C\c1ccco1)CC2,active: 9.53 µM,"inconclusive: 4.78 µM [inhibitor, partial curve, poor fit]",inactive,
O=C(CSc1ccc2ccccc2c1)Nc1ccc(S(=O)(=O)Nc2nccs2)cc1,"inconclusive: 50.1 µM [inhibitor, partial curve]",inactive,"inconclusive: 1.12 µM [activator, partial curve, poor fit]",
COc1ccc(S(=O)(=O)Nc2ccc3cn[nH]c3c2)cc1C,"inconclusive: 13.5 µM [inhibitor, partial curve, poor fit]",active: 67.5 µM,inactive,
CCOC(=O)C1=C(C)N=c2s/c(=C\c3ccc(OCC(=O)O)cc3)c(=O)n2C1c1ccc(OC(C)C)cc1 (centres undefined),active: 75.7 µM,"inconclusive: 42.6 µM [inhibitor, partial curve]",inactive,
Cc1cc(C)cc(C(O)c2ncc(-c3ccccc3Cl)[nH]2)c1 (centres undefined),inactive,inactive,"inconclusive: 0.0355 µM [activator, full curve, poor fit]",
CCO[C@@H]1OC(C(=O)N2CCN(Cc3ccc4c(c3)OCO4)CC2)=C[C@H](C2CCCCC2)[C@H]1CCCO,"inconclusive: 47.8 µM [inhibitor, partial curve]",inactive,inactive,
COc1ccccc1C1CC(=O)Oc2cc(C)c(Cl)cc21 (centres undefined),"inconclusive: 84.9 µM [inhibitor, partial curve, poor fit]",active: 9.53 µM,inactive,
C/C(=N\Nc1ccc([N+](=O)[O-])cc1)c1ccc(O)cc1,"inconclusive: 47.8 µM [inhibitor, partial curve]",active: 26.9 µM,"inconclusive: 4.47 µM [activator, full curve]",
CCOC(=O)[C@H]1[C@H]2COc3ccc(C)cc3[C@@H]2N2C(=O)c3cc(F)c(F)cc3NC(=O)[C@@]12C,"inconclusive: 53.6 µM [inhibitor, partial curve]","inconclusive: 26.9 µM [inhibitor, full curve]",inactive,
CCCn1cc(SCC(=O)NCc2ccc3c(c2)OCO3)c2ccccc21,"inconclusive: 3.98 µM [inhibitor, partial curve]",inactive,"inconclusive: 5.01 µM [activator, partial curve, poor fit]",
Cc1cc(C)c(C)c(S(=O)(=O)N2CCCCC2C(=O)O)c1C (centres undefined),"inconclusive: 3.55 µM [inhibitor, full curve, poor fit]",inactive,,inactive: -1.83% [at 30.8 µM]
O=C(N/N=C/c1ccoc1)c1cc(O)cc(O)c1,"inconclusive: 23.9 µM [inhibitor, partial curve]","inconclusive: 84.9 µM [inhibitor, single point]",inactive,
O=C(O)c1ccccc1N=N/C(=N/Nc1cc(S(=O)(=O)O)ccc1O)c1ccccc1,active: 44.7 µM,"inconclusive: 8.49 µM [inhibitor, single point]",,inactive: -1.6% [at 30.8 µM]
Cn1cccc1C(=O)NC(=O)COC(=O)c1ccc(S(C)(=O)=O)c([N+](=O)[O-])c1,"inconclusive: 35.5 µM [inhibitor, partial curve]",inactive,"inconclusive: 12.6 µM [activator, partial curve, poor fit]",
CCc1ccc2c(c1)NC(=O)C2(C)Cc1ccc(Cl)s1 (centres undefined),"inconclusive: 10 µM [inhibitor, full curve]",inactive,,inconclusive: 39.6% [activator] [at 30.8 µM]
CC(=O)C1=CCC(c2ccccc2Cl)N(S(=O)(=O)c2ccc(C)cc2)C1 (centres undefined),"inconclusive: 37.9 µM [inhibitor, partial curve, poor fit]","inconclusive: 33.8 µM [inhibitor, single point]","inconclusive: 22.4 µM [activator, partial curve, poor fit]",
